In all, about 33,000 sequences were measured (“E-score (-0.5 to 0.5)”: median about -0.056, highest 2% from about 0.38 on). The list shows a part of the results.
target: Stb4 (UniProt P50104); test: PBM E-score (8-mer binding enrichment) (E-score (-0.5 to 0.5)); higher = stronger / more preferred TF binding; most listed sequences are background and not binding sites; details: protein concentration: 200 nM; construct: GST-DNA-binding domain
Procedure: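 Universal 'all 10-mer' protein binding microarrays (Agilent AMADID 015681) probed with GST-tagged S. cerevisiae TFs (full-length or DBD) made by in vitro transcription/translation (PURExpress), about 100-200 nM. Bound TF was detected with fluorescent anti-GST. Each ungapped 8-mer (which stands for itself and its reverse complement) is scored by the PBM enrichment score (E-score), a modified Wilcoxon-Mann-Whitney statistic from -0.5 to +0.5, computed with the Universal PBM Analysis Suite. Scale: above 0.35 generally sequence-specific binding.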

Sequence	PBM E-score
CTCCTCAA	-0.119
CCGATATA	0.232
GTTCCCAA	-0.009
CTCCCCAA	-0.0153
AATTATTA	0.00691
ATCTAAAG	-0.0451
AGTTGCCG	0.3
CCGTTCAG	0.18
CTTAGGCC	-0.0865
ACGTCTAA	-0.212
CCTTTTCG	-0.00261
ACTACTTA	-0.187
TCCCGGGA	0.409
CTCTGGAA	-0.105
ACAACAAA	-0.0382
CCTCGGCA	0.461
GGCCAGAA	-0.0153
CAGACGAA	0.0157
CGCTTCGA	0.0358
CGAGCAAA	0.0293
AAACCGCG	0.147
CCGAGATA	0.405
AGAAATCA	-0.0716
CCCCTAGA	-0.421
CCACACAC	0.142

Sequence	PBM E-score
CTCCGGAC	0.285
AACGCGCG	-0.00161
ATGGAAAT	-0.00601
GGCAGCGA	-0.0169
GGGATACA	0.191
ACCGAGGC	0.302
GGTCTCGA	0.0101
GACGGTCA	-0.244
AAGCACCG	0.0356
GCGCCTGA	-0.146
CACTGGAC	0.0415
ATAGGGAT	-0.152
GTCACAAC	0.00653
GCGAGGAC	-0.224
CGACGGAA	0.347
CTTGCTTC	-0.172
AGTTCATA	-0.0667
CACCTGGG	-0.247
AGTGATGG	-0.0275
AGCCACGA	-0.159
CCATCGAC	-0.155
ATGGTAAC	-0.0572
TAGAAAAA	0.0911
GAACGTCC	0.141
AACTATGA	-0.0574

Sequence	PBM E-score
AGGCCATA	-0.164
ACTTAGTG	-0.0923
ATCGATAC	-0.193
AGGATAAC	-0.159
CTACGCAA	-0.116
CCTAGCAG	-0.21
GTTGGTTA	-0.111
AGTTTACG	-0.0171
AGTCTTAT	-0.0532
CGCGGTCC	0.145
CATGCTTC	-0.123
AAATGAAC	-0.14
GACAGATA	-0.00079
GTCATTAA	-0.0639
CAGCTACG	-0.293
GCCACGTA	-0.197
CCCGCAGC	0.207
GGGAAATA	0.157
CTATCTGC	-0.057
GGCAGTTA	-0.00874
CAACGGCA	0.121
GATCGCAA	0.00904
CCGCGGCG	0.202
CCAGTGAA	-0.0757
GACGCCTA	-0.153

Sequence	PBM E-score
CAAAAGCC	0.0286
CGATTGTC	0.0483
CTGATCGA	-0.208
AATACAGC	-0.112
TCCCCAAA	-0.197
ACTTCATC	-0.0629
AGGTCGTG	-0.273
GAAGGTAC	-0.153
CACGCTGA	-0.26
CAGCGCAG	-0.0654
CAAGACCC	0.0339
AAGACTCG	0.0658
AGTTCACC	-0.0122
GAGGCCAC	-0.0201
CGTGATAA	-0.0309
CCTCACAG	-0.0831
GTTTGGTA	-0.0358
ATTCTTCG	0.0218
AAAGCCTT	-0.122
CTGCATAA	0.0639
CAATGATA	-0.262
AGGCCACA	-0.253
AGGTAATA	-0.0148
GTGGCCCA	-0.13
ATCCCTCG	0.238

Sequence	PBM E-score
AGTGTGCA	-0.13
CAAGACGA	-0.085
ACGTTGAT	-0.102
CTGGCGGC	0.139
GTAGCGTA	0.0406
ATTCGATG	-0.148
ATCGCTCA	-0.0805
ATTTGAGC	-0.0256
ACAGCCCA	-0.062
CATAGGTA	-0.0802
ATGACATA	-0.136
CCGACCGG	0.35
CGATGCAA	0.119
AAATTGTG	-0.295
AAGGCTGA	-0.192
AAGAACAC	-0.0126
ACCGAACT	0.365
CTGGTTTC	0.0875
AGCACAAC	0.0479
TCAATGGA	-0.173
GGTCGTGA	-0.153
ATACTTTG	-0.155
GAGAACCC	0.14
AGATGCAG	-0.244
AATTATCT	0.0435

Sequence	PBM E-score
CTCTTATA	-0.00872
CAGTGCAC	-0.0135
GACCCCAC	0.0629
ACCTGACC	-0.114
AAAAACAC	-0.0299
CCAGTGCC	-0.138
ATTTTGCA	-0.103
AGCCGTAT	0.0974
GACCGGCC	0.184
CCGCGCAC	0.0141
AATCAAAA	0.0461
GAGGCAGA	-0.19
CAATTAAC	-0.0116
CCCGCCGG	0.252
ACGTAGTC	-0.211
ACGCAGCC	0.023
AAATTAGT	-0.165
AAAAGCCG	0.281
GACAACAA	-0.223
AGCGGAAG	0.335
AGAGATAT	-0.167
AGTGAAGA	-0.212
GAGTGCAC	0.0722
AATTTTCC	0.327
GGGAGCCC	-0.0552

Sequence	PBM E-score
AACATTTA	0.144
AGCCATGA	-0.0457
CAGATTAG	-0.195
TAACTTCA	-0.143
CTGTTGTA	-0.15
AAAGAACA	-0.114
CCTATAAA	-0.135
CGGGAAAA	0.359
GCCGGCGA	0.214
CGTTTTCA	-0.0125
GTGTTCGA	-0.176
AAACGTCC	-0.126
CCGCCCCG	0.374
ATAAAATA	-0.0366
GATGTCGC	-0.0282
GATTGGGA	-0.131
CTCATACC	0.00427
CTGGTGGC	-0.167
CGCTAGTA	0.0633
GCTTCACA	-0.0986
AATCTCAG	-0.185
ACTTCTTG	0.0197
GCGAGCAC	-0.135
GCTCAAAC	0.0586
AGTCGCAT	-0.137

Sequence	PBM E-score
ATTATGAA	-0.0797
AGGTGGAC	-0.149
GTTCCGCA	0.293
GAACGGTA	0.0439
ATCTTGAC	-0.215
AATTGGCA	-0.174
AGGGGTTC	-0.108
CCAGTACA	-0.271
CGTGAATC	-0.0256
GGTCCAGA	-0.144
AAGTAGAT	0.0783
ACGATGCG	-0.245
CGCTCACG	0.0904
ACTGCCTG	-0.22
ACGTGAAT	-0.147
AACGTACG	-0.191
GCGGCTAC	0.169
CGTCTACC	0.0015
AGCCGGAC	0.239
CGCAGGTA	-0.0206
GGGGAGAA	0.0293
CGCCCCCC	-0.129
CCGGTTAA	0.334
CGTTACTC	-0.0977
GACCCGAC	0.384

Sequence	PBM E-score
TATCATGA	-0.145
ACCTAGAA	-0.144
ACCTTATA	-0.0931
CCAAACGG	0.0787
GCCTTCCA	-0.24
AATTGGCC	-0.0899
ATTTATAC	0.173
ATATAGAG	-0.154
ACCTCCTA	-0.155
CAGAATCG	0.194
GCAGGATA	-0.241
AGTTACAC	-0.0471
AGTTGGAT	-0.0955
CGACATAC	-0.0694
GACGGCAC	0.0854
GTAAAGTA	-0.131
CCAATGTA	-0.00695
GCACGACC	-0.0299
CAAGTGTC	-0.171
AACCAGAG	-0.221
AAGCGGGT	0.168
ATTCCCTC	-0.0926
CCTTAAGA	-0.315
GAACAGAA	0.0155
ACGTACTG	-0.241

Sequence	PBM E-score
CCCGGGCG	0.287
CACGTAGG	-0.293
CGGAATTC	0.322
CTTATTAC	-0.146
ACCGTGCC	0.0178
TCAACAGA	0.0285
CGCAGTGC	-0.207
AGCGAGAA	-0.105
ACGTATCG	-0.117
ACGTGCTC	-0.0136
ACGGCTCA	0.0829
ATACTAAC	0.0905
CAGAAGCA	-0.184
CTCGGCCA	0.251
AAAGTTTG	-0.048
GCTCAGTA	-0.24
ACGAGTAA	-0.0622
ATACAGCG	-0.187
CTTATAAC	0.0116
CTACCCAC	-0.117
GATCACCC	0.0178
ACTGCTGG	-0.211
CGTGCACC	-0.102
ACCTACTG	-0.0984
CTGCGAGA	-0.238

Sequence	PBM E-score
ACAATTCA	-0.164
ATGTATTC	0.199
ACACCTGC	-0.155
TCCTGTAA	-0.212
ACGTAAGA	-0.178
GACTCGAA	0.0374
TAATTCAA	0.00504
CTGTCGCC	-0.0279
GCGAGTCC	-0.0651
ATCGGGCC	0.274
AATCAACA	-0.0365
CTTGAGCC	-0.00056
GAGCTCTA	-0.147
CGCCTGGA	-0.131
CTGTCAAA	-0.136
ATAGGCAT	-0.0616
ACTACTAT	-0.055
GTCACACA	-0.0169
GATGGCGC	-0.0995
CGTGGATC	-0.116
GGCAATAC	0.205
CGAGACCG	0.28
GCCTTCGA	-0.237
CCATCCCG	0.214
AAAAGATA	-0.0815

Sequence	PBM E-score
CTTATCCA	0.0242
ACCATGGC	-0.0659
GATTTGCA	-0.0581
AACTCCTG	-0.111
AACCGATA	0.227
TATCTCAA	-0.0915
ACATCTAG	-0.213
CTTCATAC	-0.103
ATCAACAC	-0.101
CCGTGCGA	0.17
CTGAAAGA	-0.0709
TCTAGACA	-0.152
AAGCAGAC	-0.0699
AGTGGAAA	-0.075
GTGCTTTA	-0.191
CCTTTGCC	0.0171
AATTCGTA	0.0882
GAGAGCGA	-0.115
CACACATG	-0.15
GGTGTGAA	0.102
ACATTAGA	-0.113
CCTAATAG	-0.0578
CGTTGCAG	-0.168
AATGGCGA	-0.0861
ACACCGTG	0.106

Sequence	PBM E-score
CCGGTTGC	0.316
AAATGGGA	-0.275
CAAATTGG	-0.104
AGACGGCC	0.0725
GCGAAAAA	0.0144
CATCTAAG	0.00761
AGACCTAC	-0.172
CACTTTGG	-0.178
TCGATAAA	0.0308
GCCTTCAC	-0.121
AGGGGTTA	-0.0368
GGCTTGAA	-0.103
CCAACCCG	0.185
GGTTTTAA	0.126
AACATGCA	-0.288
AGACCCTG	-0.254
TAATCGAA	-0.0737
CCTAGCTC	0.0275
CAAGATGG	-0.192
CCACTGCA	-0.135
CATCTGCG	-0.0456
CGTTTTGA	-0.149
AGTTGAAA	-0.00168
CCGACAAG	0.251
CCCTCTCC	-0.0948

Sequence	PBM E-score
ATATGTGA	-0.301
CCAGTGGA	-0.138
CTCCGGGA	0.313
AGATGCGA	-0.0599
CCAAGAGA	-0.132
GAGTAATA	0.106
ACATTACT	-0.154
CCATTAAC	-0.192
AGACTCTC	-0.0419
TCGTGGAA	-0.0505
CGAGATTA	0.263
AAGAAGCC	0.206
CTTCACAC	-0.108
ATAGTAGG	-0.0248
AGGTTCAA	-0.0583
TACCTAAA	-0.0909
GGGCGGAC	0.224
CTGTGCGC	0.0675
ATAACTGA	-0.0497

Source: the supplement of paper PMC3334620
